Measurements taken from article PMC7185459 (Antiviral Research, 2015).

Test system: SRI 29365-resistant mutant hRSV
Format: cell-based, Human respiratory syncytial virus

## c1coc(-c2nn3c(Cn4cnc5ccccc54)nnc3s2)c1 [SRI 29365, 1-[6-(2-furyl)[1,2,4]triazolo[3,4-b][1,3,4]thiadiazol-3-yl]methyl-1H-benzimidazole]
  reduction of virus TCID50: less than 10 fold
